# The campaign covered roughly 420,000 compounds. About 50,000 (12%) were called active. The shares of active, inactive and inconclusive entries below differ from those in the screen. Calls come from the whole dose curve; as a rule, active = well fitted inhibition curve with a large enough effect; inconclusive = small, poorly fitted or top-dose-only effect; inactive = flat fitted curve, though single readings scatter. Potencies of inconclusive entries are left out as doubtful fits.
# Test: qHTS for Inhibitors of human tyrosyl-DNA phosphodiesterase 1 (TDP1): qHTS in cells in presence of CPT; note: nearly all actives have a fitted effect of over 55% in size
# Settings: chicken DT40 Tdp1-/-;hTDP1 cells + 20 nM CPT, ATP luminescence, 48 h; activity change, negative = growth inhibition: at 46.2 µM (top of the series)
# Summary of the method: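 Chicken DT40 Tdp1-/- cells stably complemented with human TDP1 were seeded at 400 cells/well in medium containing 20 nM camptothecin, exposed to pin-transferred compounds, and grown at 37 °C for at least 48 hr. Viability was read as ATP luminescence.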
# % is set by controls: 0 for no effect and ±100 for the full control effect; potency is the fitted concentration of half-maximal effect; tags give direction and shape of the fitted curve.
SMILES,Potency,"activity change, negative = growth inhibition"
CC(C)(C)c1cc(S(=O)(=O)CCc2ccncc2)cc(C(C)(C)C)c1F,inactive,
CCOC(=O)N[C@H](Cc1c[nH]c2ccccc12)C(=O)Nc1cccc(Cl)c1,"inconclusive [inhibitor, single point]",
CCOC(=O)c1c(C)[nH]c(C(=O)COC(=O)c2ccc(O)cc2O)c1C,"inconclusive [inhibitor, partial curve]",
O=C(Cc1ccccc1)N1CCCC1c1ccccc1 (stereo unspecified),active: 16.4 µM,
Cc1ccc(S(=O)(=O)N(C)c2ccc(C(=O)NCc3cccnc3)cc2)cc1,,inconclusive: -31.3% [inhibitor]
Cc1cc(-c2csc(N)n2)c(C)n1-c1ccccc1,"inconclusive [inhibitor, single point]",
CC(C)Oc1ccc(CNC(=O)C2=Cc3ccccc3OC2)cc1,active: 20.6 µM,
CCOc1ccc(Nc2nc3ccccc3n3cnnc23)cc1,"inconclusive [inhibitor, single point]",
CCOCCCN(Cc1ccco1)C(=O)c1cc2c(s1)-c1c(C)cccc1OC2,"inconclusive [inhibitor, single point]",
Cc1ccc(C(=O)NCC(=O)NCC(c2ccco2)N2CCCCC2)cc1C (stereo unspecified),"inconclusive [inhibitor, single point]",
CC(C)(C)OC(=O)NCC12C=CC(O1)C1C(=O)N(Cc3ccccc3)C(=O)C12 (stereo unspecified),"inconclusive [inhibitor, single point]",
COc1ccc(-c2nnc3sc(-c4cccs4)nn23)cc1OC,active: 10 µM,
CC(C)CN1C(=O)c2ccc(NC(=O)c3cccs3)cc2C1=O,"inconclusive [inhibitor, single point]",
CCOc1ccccc1N1CSC2=C(C#N)C(c3c(OC)ccc4ccccc34)CC(=O)N2C1 (stereo unspecified),"inconclusive [inhibitor, single point]",
COc1cc(NC(=O)CSc2nnnn2C2CCCC2)cc(OC)c1,inactive,
O=C(O)c1cccc(NC(=O)C23CC4CC(C2)CC(n2cnc(Cl)n2)(C4)C3)c1,inactive,
COCCNC(=S)N1CCN(c2nc3ccccc3s2)CC1,"inconclusive [inhibitor, single point]",
O=C(NNc1ccc([N+](=O)[O-])cn1)Nc1ccc(N=Nc2ccccc2)cc1,"inconclusive [inhibitor, single point]",
Cc1ccc(S(=O)(=O)CCC(=O)Nc2nc(-c3ccccn3)cs2)cc1,active: 6.51 µM,
Cc1ccsc1C(=O)N1CCCC(CCC(=O)NCc2ccc(F)c(F)c2)C1 (stereo unspecified),"inconclusive [inhibitor, single point]",
CCOc1ccccc1NC(=O)c1ccc2c(=O)n3c(nc2c1)CCCCC3,active: 16.4 µM,
O=C(NCCc1ccc(Cl)cc1)C1CCN(c2cnccn2)CC1,"inconclusive [inhibitor, single point]",
Cc1ccc2ccccc2c1NC(=O)c1ccco1,"inconclusive [inhibitor, single point]",
CN(CCNC(=O)C1CCN(S(=O)(=O)c2cnc[nH]2)CC1)Cc1ccccc1,inactive,

SMILES,Potency,"activity change, negative = growth inhibition"
CC1CCCC(NC(=O)C2CCN(S(=O)(=O)N3CCOCC3)CC2)C1C (stereo unspecified),"inconclusive [inhibitor, partial curve]",
CCOC(=O)C(C)Sc1nnc(NC(=O)c2ccc(C)c([N+](=O)[O-])c2)s1 (stereo unspecified),inactive,
COc1ccc(C(=O)NC2CCCc3ccccc32)cc1 (stereo unspecified),inactive,
COc1ccc(S(=O)(=O)Nc2ccc(NC(C)=O)cc2)cc1OC,"inconclusive [inhibitor, single point]",
COCCN(CC(=O)Nc1cccc(C)c1C)C(=O)Cc1cccs1,inactive,
Cc1ccc(C(=O)C(C)OC(=O)c2ccccc2[N+](=O)[O-])cc1 (stereo unspecified),"inconclusive [inhibitor, single point]",
COc1ccc2nc(NC(=O)CSc3nc4cccnc4n3C)sc2c1,"inconclusive [inhibitor, partial curve]",
Cc1ccc(-n2nc3c(=O)n(CCCC(=O)NCc4ccc(Cl)cc4)nc(C)c3c2C)cc1,active: 23.1 µM,
CCN(CC)S(=O)(=O)c1ccc(N2CCCC2)c(NC(=O)c2ccccc2OC)c1,"inconclusive [inhibitor, single point]",
O=C(Nc1ccc(Cl)cc1)c1ccc2nsnc2c1,"inconclusive [inhibitor, full curve]",
Cn1cc(Br)c(C(=O)N/N=C/c2cccc(OC3CSC3)c2)n1,inactive,
Cc1cn(CCC(=O)Nc2ccccc2N2CCOCC2)c2ccccc12,inactive,
CN(C)C(=O)CCc1ccc2c3c([nH]c2c1)[C@]1(CCC2CCCC2)[C@@H](C(=O)N2CCOCC2)C[C@H](CC(=O)NCC24CC5CC(CC(C5)C2)C4)C(=O)N1CC3,"inconclusive [inhibitor, single point]",
COc1cc(CNc2ncnc3c2ncn3[C@H]2CN(CCc3ccccc3)C[C@@H](CO)O2)cc(OC)c1OC,"inconclusive [inhibitor, partial curve, poor fit]",
Cc1ccsc1C(=O)Nc1nnc(-c2ccco2)o1,"inconclusive [inhibitor, partial curve, poor fit]",
CCCCSCCCNC(=O)CS(=O)Cc1nc(-c2cccc(C)c2)oc1C (stereo unspecified),inactive,
CCCOC(=O)c1c(NC(=O)c2cnn3c2NC(c2ccccc2)CC3C(F)(F)F)sc2c1CCCC2 (stereo unspecified),"inconclusive [inhibitor, single point]",
CCCC#Cc1ccc2c(c1)O[C@H](CN(C)C(=O)CC1CC1)[C@H](C)CN([C@@H](C)CO)S2(=O)=O,"inconclusive [inhibitor, full curve, poor fit]",
Cc1ccc(C(=O)NCc2ccc3c(c2)OCO3)c(Cl)c1,inactive,
COc1cc2c(cc1OC)C(COc1ccc(C(C)C)cc1)NCC2 (stereo unspecified),"inconclusive [inhibitor, single point]",
Cc1cc(/C=C2/NC(=O)NC2=O)c(C)n1-c1ccc(N2CCOCC2)cc1,"inconclusive [inhibitor, partial curve, poor fit]",
O=C(O)CSc1nnc(-c2ccccc2)c(-c2ccccc2)n1,"inconclusive [inhibitor, single point]",
COC(=O)Cn1ncc2c3ccccc3n(C)c2c1=O,"inconclusive [inhibitor, partial curve]",
O=C(O)c1cc(-c2cccs2)nn1-c1ccccc1,inactive,

SMILES,Potency,"activity change, negative = growth inhibition"
CCCCSc1nnc2c(n1)OC(c1ccc(Br)s1)Nc1ccccc1-2 (stereo unspecified),"inconclusive [inhibitor, single point]",
CCCC(=O)N1CCC1(C)C(=O)Nc1ccc2c(c1)OCCO2 (stereo unspecified),inactive,
C=CCn1nc(C(=O)OCC)cc1-c1sc(NC(=O)c2ccccc2)nc1C,"inconclusive [inhibitor, single point]",
COc1ccc(OC)c(NC(=O)C23CCC(C)(C(=O)C2)C3(C)C)c1 (stereo unspecified),inactive,
COc1cc(/C=C(\C#N)c2nnc(N3CCOCC3)n2-c2ccccc2)ccc1O,"inconclusive [inhibitor, partial curve, poor fit]",
S=C(Nc1ccc2nsnc2c1)NC1CCCCC1,"inconclusive [inhibitor, single point]",
O=C(NCCc1ccc(C(F)(F)F)cc1)C1CC(=O)N(Cc2ccccc2)C1 (stereo unspecified),inactive,
O=C(NCc1ccccn1)[C@@H]1CCCN1C(=O)[C@@H]1CCCN1C(=O)c1ccccc1,inactive,
C=CCOC(=O)Nc1nc(CCNC(=O)OCc2ccccc2)c(C(=O)OC)s1,inactive,
CC(C)C(Cl)=NOC(=O)Nc1ccc(F)cc1,active: 1.46 µM,
Cc1ccc(-n2c(C)cc(C=C(C#N)C#N)c2C)cc1,"inconclusive [inhibitor, single point]",
Cc1ccc(CNC(=O)Cn2ccc3cc(S(=O)(=O)N4CCCC4)ccc32)o1,inactive,
Cc1ccc(NC(=O)CN(Cc2ccccc2)S(=O)(=O)c2ccc3nc(C)sc3c2)c(C)c1,"inconclusive [inhibitor, single point]",
O=C(Nc1ccc(S(=O)(=O)N2CCOCC2)cc1)c1nn(-c2ccc(F)cc2)ccc1=O,"inconclusive [inhibitor, single point]",
Cc1ccc(-c2nc(CSc3nnc(C)n4c3cc3occc34)c(C)o2)cc1,inactive,
COc1ccc(CNC(=O)c2c(O)nc3c(C)cccn3c2=O)cc1,"inconclusive [inhibitor, partial curve]",
CN(C)c1ccc(CNC(=O)CCCN2C(=O)c3cccnc3Oc3ccc(Cl)cc32)cc1,active: 18.4 µM,
CC(=O)C1=C(O)C(=O)N(c2cccc(Br)c2)C1c1ccc(Br)cc1 (stereo unspecified),inactive,
CC(=O)Nc1ccc(NC(=O)c2ccccc2C)cc1,inactive,
CCN(CCn1cccn1)C(=O)c1cc(COc2ccccc2SC)on1,"inconclusive [inhibitor, single point]",
Cn1c(=O)c2c(nc(N/N=C/c3cccs3)n2Cc2ccccc2)n(C)c1=O,"inconclusive [inhibitor, single point]",
O=C(CSc1cccc[n+]1[O-])Nc1cc(Cl)ccc1[N+](=O)[O-],"inconclusive [inhibitor, single point]",
CCOC(=O)C1CCCN(C(=O)c2ccc(Cl)c(S(=O)(=O)N3CCCCC3)c2)C1 (stereo unspecified),"inconclusive [inhibitor, single point]",
